Over roughly 13,000 compounds, “IFI” has its median near 4; the highest 2% begin near 17. This is one part of the list.
assay: GSK_TCMDC: Inhibition Frequency Index (IFI). The number of non-kinase HTS assays where a compound showed > 50 % inhibition, expressed as a percentage of the number of such assays in which the compound was tested (-0 is zero); assay type: functional

Compound	IFI [%]
c1ccc(C23NC(=Nc4nc5ccccc5[nH]4)NC2(c2ccccc2)NC(=Nc2nc4ccccc4[nH]2)N3)cc1 (centres undefined)	1.44
O=C(/C=C/c1ccc(Cl)c(Cl)c1)N1CCC(CNCc2cccc3cc[nH]c23)CC1	15.2
Cc1cccc2nc(-c3ccc(-c4cccc(CN5CCCC(N)C5)c4)s3)[nH]c12 (centres undefined)	4.23
CC1(C)CC(NC(=O)NC2CCN(Cc3ccccc3)CC2)CC(C)(CNC(=O)NC2CCN(Cc3ccccc3)CC2)C1 (centres undefined)	0
CCOc1c(CNCCCNc2cc(=O)c3ccccc3[nH]2)cc(I)cc1C(C)(C)C	7.48
COc1ccc2c(c1)CC(CNC[C@H](O)c1cccc(Cl)c1)CC2 (some centres undefined)	0.75
O=C(c1cc2nc3c(c(C(F)(F)F)n2n1)CCc1ccccc1-3)N1CCN2CCCC2C1 (centres undefined)	-0
CC(=O)Nc1ccc(C(=O)Nc2cccc(-c3ccc(-c4nc5cc(C(F)(F)F)ccc5[nH]4)s3)c2)cn1	1.79
Cc1cccc(CNc2nc(C)cc(N[C@@H](Cc3ccccc3)C(=O)NC3CCCC3)n2)c1	27.3
Cc1cc(CN2CCC(C(=O)Nc3ccc(-c4nc5ccccc5[nH]4)cc3)CC2)oc1C	-0
CCOC(=O)c1cc(Cl)ccc1OCCCON1C(=N)N=C(N)NC1(C)C	3.01
Cc1oc(-c2cccc(Oc3ccccc3)c2)nc1CN(Cc1cnn(C)c1)C(C)C	2.7
Nc1nc(N)c2c(Oc3ccc(Cl)c(Cl)c3)cccc2n1	7.58
CC(CNC(=O)[C@H]1CNCCN1C(=O)CCCc1ccccc1)c1ccccc1 (some centres undefined)	2.84
C[C@@H](N)C#Cc1cc2c(Nc3ccc(OCc4cccc(F)c4)c(Cl)c3)ncnc2s1	7.97
CCCn1c(O)nnc1SCC(=O)Nc1cc(Cl)ccc1Cl	-0
CN1CCN(CCCN(Cc2csc(-c3ccc(CNCc4ccccc4)cc3)n2)C(=O)c2cc(F)cc(F)c2)CC1	5.52
CN1CCC(N2CCN(C(=O)c3cccc(-c4cccc(-c5nc6ccccc6[nH]5)c4)c3)CC2)CC1	3.96
COc1ccccc1-c1ccc(C(=O)NCC2CCCN(Cc3cccc(C(F)(F)F)c3)C2)s1 (centres undefined)	3.7
CCc1c[nH]c2c(N3CCCCC3=O)cc(C(=O)N[C@@H](Cc3ccccc3)[C@H](O)CNCc3cccc(OC)c3)cc12	2.14
FC(F)(F)c1ccc(CNCC2CCN(Cc3ccc4c(c3)OCO4)CC2)cc1	3.42
COc1ccc(C2CC(c3cccs3)=NN2C(=O)COc2cccc(C(C)=O)c2)cc1OC (centres undefined)	0
COc1ccc2nccc([C@@H](O)CN3CCC(NC(=O)c4ccc(Oc5ccccc5)cc4)CC3)c2c1	9.63
COc1ccc2[nH]ccc(=NN=Cc3cccc(C)n3)c2c1	2.19
